Results as given in PubChem BioAssay AID624173 (National Center for Advancing Translational Sciences (NCATS), 2012).
Out of some 410,000 compounds screened, about 490 (0.12%) were called active. Inconclusive means that the source gave no clear call. Such entries were picked first, then a sample of the others. Calls come from the whole dose curve; as a rule, active = well fitted inhibition curve with a large enough effect; inconclusive = small, poorly fitted or top-dose-only effect; inactive = flat fitted curve, though single readings scatter. A potency beside an inconclusive call is a rough fit, not a confirmed value.

Each molecule was assayed against pyruvate kinase (Trypanosoma brucei) (UniProt Q57TT1) (assay: qHTS of Trypanosoma Brucei Inhibitors). Details: TbPYK enzyme, Kinase-Glo Plus ATP luminescence, 45 min; series mostly up to 76.8 µM; activity, negative = inhibition: at the top concentration.
How it was run: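 Enzyme and substrate buffer are dispensed first and compound is pin-transferred. ADP at 130 uM final then starts the reaction, which runs 45 min at room temperature. Detection reagent is added for 10 min before luminescence is imaged.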
% is set by controls: 0 for no effect and ±100 for the full control effect; potency is the fitted concentration of half-maximal effect; tags give direction and shape of the fitted curve.
Note: nearly all actives have a fitted effect of over 50% in size.

| SMILES | activity, negative = inhibition | Potency |
| --- | --- | --- |
| CC(C)Cc1ccc(CN2CCCC(NC(=O)c3ccnn3C)C2)cc1 (centres undefined) | inactive: 2.1% |  |
| Cc1cc(C)c2oc(-c3ccc(C)c(NC(=O)/C=C/c4ccco4)c3)nc2c1 |  | inconclusive: 39.8 µM [inhibitor, single point] |
| COc1ccc(Cn2c(CO)cnc2SCc2cccc(C)c2)cc1 |  | inconclusive: 50.1 µM [inhibitor, single point] |
| CC(c1n[nH]c(=S)n1-c1ccc(F)cc1)N1CCCCC1 (centres undefined) |  | inconclusive: 28.2 µM [inhibitor, partial curve, poor fit] |
| CCCCCC(=O)NNC(=S)NC(=O)c1ccc([N+](=O)[O-])cc1 |  | inconclusive: 8.91 µM [inhibitor, partial curve, poor fit] |
| O=C(CNC(=O)Cc1ccccc1)NCC(=O)OCc1ccccc1 |  | inconclusive: 39.8 µM [inhibitor, single point] |
| Cc1ccccc1Nc1n[nH]c(=S)s1 |  | inconclusive: 7.94 µM [inhibitor, partial curve, poor fit] |
| CCOC(=O)CN=C1CC(C)(C)CC2=C1Sc1ncnc(N(C)C)c1N2 |  | inconclusive: 28.2 µM [inhibitor, partial curve, poor fit] |
| CCOC(=O)c1c(N2C(=O)C=CC2=O)sc(C)c1C |  | active: 25.1 µM |
| Cc1ccc(-n2c(-c3c(-c4ccccc4)noc3C)n[nH]c2=S)cc1 |  | inconclusive: 56.2 µM [inhibitor, partial curve, poor fit] |
| COc1cc(-c2noc(-c3ccc(NC4CCCC4)c([N+](=O)[O-])c3)n2)cc(OC)c1OC | inactive: -0.0133% |  |
| COCCn1c(=O)c(-c2cc(F)cc(F)c2)nc2cnc(N3CCNCC3)nc21 | inactive: -4.63% |  |
| Cc1nn(CCc2n[nH]c(=S)n2C)c(C)c1Br |  | inconclusive: 20 µM [inhibitor, partial curve, poor fit] |
| Cn1c(=O)[nH]c(=O)c2c1nc(SCC(=O)O)n2CCc1ccccc1 |  | inconclusive: 31.6 µM [inhibitor, partial curve, poor fit] |
| O=c1c(-c2ccc(Cl)cc2)coc2c(CN3CCCCC3)c(O)ccc12 | inactive: 5.17% |  |
| CCCN1CCN(CCCNC(=O)C2CCCN(c3nc4ccc(OCC)cc4s3)C2)CC1 (centres undefined) | inactive: 0% |  |
| COc1ccc2nc(C)cc(N3CCC(C(N)=O)CC3)c2c1 | inactive: -2.58% |  |
| COc1ccc(Oc2ncc3nc(CCc4ccccc4)c(=O)n(C4CC4)c3n2)cc1 | inactive: -5.29% |  |
| C[C@@H](C(=O)Nc1nc(-c2ccccn2)cs1)N1C(=O)C2CCCCC2C1=O (some centres undefined) |  | inconclusive: 22.4 µM [inhibitor, partial curve, poor fit] |
